{"source": "PubChem BioAssay AID686978", "about": "(National Center for Advancing Translational Sciences (NCATS), 2013)", "note": "Among all 420,000 compounds or so, about 64,000 (15%) were called active. Inconclusive means that the source gave no clear call. Such entries were picked first, then a sample of the others. Calls follow the shape of the dose curve; as a rule, active = well fitted inhibition curve with a large enough effect; inconclusive = small, poorly fitted or top-dose-only effect; inactive = flat fitted curve, though single readings scatter. Potencies of inconclusive entries are left out as doubtful fits. % is scaled to controls: 0 for no effect and ±100 for the full control effect; potency is read from the fitted curve at half-maximal effect; tags tell the direction and shape of the fitted curve."}
{"assay": "qHTS for Inhibitors of human tyrosyl-DNA phosphodiesterase 1 (TDP1): qHTS in cells in absence of CPT; also: nearly all actives have a fitted effect of over 55% in size", "conditions": "DT40 Tdp1-/- hTDP1 cells, no CPT, ATP luminescence, 48 h; activity change, negative = growth inhibition: at 46.2 µM (top of the series) unless noted", "in_short": "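Camptothecin absent (DMSO only). Human TDP1-complemented DT40 knockout cells, 400 cells/well, 37 °C for minimum 48 hr; ATP measured via CellTiter-Glo, 30 min dark incubation, luminescence.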"}
{"smiles": "Cc1nc2[nH]c(=S)[nH]c2c(=O)[nH]1", "activity change, negative = growth inhibition": "inactive: -3.01%"}
{"smiles": "CCc1cc(C(=O)NCc2c(C)ncc3c2CCN(C(=O)C2=CCCC2)C3)no1", "activity change, negative = growth inhibition": "inactive: -10.7%"}
{"smiles": "O=C(NNc1nc2ccc(F)cc2s1)c1cccc(F)c1", "Potency": "inconclusive [inhibitor, single point]"}
{"smiles": "CCOC(=O)CSc1nc(N)c(C(=O)Nc2ccc(N(C)C)cc2)s1", "Potency": "inconclusive [inhibitor, single point]"}
{"smiles": "S=C(NCc1ccccc1)Nc1cccc(Cl)c1", "Potency": "inconclusive [inhibitor, single point]"}
{"smiles": "Cc1[nH]c2ccccc2c1C(=O)CSc1ccccc1", "Potency": "inconclusive [inhibitor, single point]"}
{"smiles": "O=C(Nc1nnc(-c2ccco2)o1)c1ccc([N+](=O)[O-])s1", "Potency": "active: 9.2 µM"}
{"smiles": "O=C(NC1CCCCC1)c1nc(C2CCNCC2)oc1-c1ccccc1", "Potency": "inconclusive [inhibitor, single point]"}
{"smiles": "Cc1cc(C)cc(NC(=O)c2ccc([N+](=O)[O-])o2)c1", "Potency": "active: 6.51 µM"}
{"smiles": "CN(C)N=Nc1ccc2nc[nH]c2c1", "activity change, negative = growth inhibition": "inactive: -13.4%"}
{"smiles": "O=C(Nc1ccc(Oc2ccc3ccccc3c2)cc1)c1ccco1", "Potency": "inconclusive [inhibitor, partial curve, poor fit]"}
{"smiles": "N#Cc1ccccc1S(=O)(=O)N1CCN(CC(=O)Nc2ccnn2C2CCCC2)CC1", "activity change, negative = growth inhibition": "inactive: -14.6%"}
{"smiles": "COc1cc(SC)ccc1C(=O)Nc1cc(C)ccn1", "Potency": "inconclusive [inhibitor, single point]"}
{"smiles": "CC(=O)N1CCC(N(C(=O)Nc2ccc(Cl)cc2)C(C)C)CC1", "Potency": "inconclusive [inhibitor, single point]"}
{"smiles": "COc1ccccc1-c1noc(CCCC(=O)Nc2cccc(C(F)(F)F)c2)n1", "Potency": "active: 18.4 µM"}
{"smiles": "COc1ccccc1N1C(=O)c2ccc(C(=O)Nc3ccc(F)cc3)cc2C1=O", "activity change, negative = growth inhibition": "inactive: -9.08%"}
{"smiles": "Oc1[nH]c2ccc(Br)cc2c1N=NC(=S)NCC1CCCO1", "note": "(stereo not drawn)", "Potency": "inconclusive [inhibitor, single point]"}
{"smiles": "C[N+](C)(C)CCCN1C(=O)CCCC1=O", "activity change, negative = growth inhibition": "inactive: -5.82%"}
{"smiles": "Cc1cccn2c(=O)c3cc(C#N)c(=NC(=O)c4cccnc4)n(CC4CCCO4)c3nc12", "note": "(stereo not drawn)", "Potency": "inconclusive [inhibitor, single point]"}
{"smiles": "Cc1csc2c(N3CCN(C(=S)Nc4ccc(F)cc4F)CC3)ncnc12", "Potency": "inconclusive [inhibitor, single point]"}
{"smiles": "COc1ccccc1NC(=O)Nc1cc(NC(=O)Nc2ccccc2OC)c(C)nc1C", "Potency": "inconclusive [inhibitor, single point]"}
{"smiles": "CC(=O)NC1=NN(C(C)=O)C(C)(c2ccc(C)o2)S1", "note": "(stereo not drawn)", "activity change, negative = growth inhibition": "inactive: 0.223%"}
{"smiles": "O=C(c1[nH]c(C(F)(F)F)nc1-c1ccccc1)N1CCc2ccccc2C1", "activity change, negative = growth inhibition": "inactive: -22.1%"}
{"smiles": "Cc1ccc(C)c(S(=O)(=O)N2CCN(C(=O)Cn3cnc4c3c(=O)n(C)c(=O)n4C)CC2)c1", "activity change, negative = growth inhibition": "inactive: 15%"}
{"smiles": "Cc1ccc(C)n1-c1nnc(N2CCCC(C(=O)Nc3ccccc3Br)C2)s1", "note": "(stereo not drawn)", "Potency": "inconclusive [inhibitor, single point]"}
{"smiles": "Nc1ncccc1OCc1ccc(Cl)c(Cl)c1", "Potency": "active: 25.9 µM"}
{"smiles": "C=CCNc1sc(C(=O)c2ccccc2)c(N)c1C#N", "activity change, negative = growth inhibition": "inconclusive: -32.4% [inhibitor]"}
{"smiles": "O=C(O)C1CCCCC1C(=O)Nc1cccc2ccccc12", "note": "(stereo not drawn)", "Potency": "active: 8.2 µM"}
{"smiles": "Cc1nonc1C(=O)N1CCCC(Nc2ccc(C(C)C)cc2)C1", "note": "(stereo not drawn)", "Potency": "active: 2.31 µM"}
{"smiles": "COc1ccc(Cc2c(-c3ccccc3)nc3ccc(Br)cn23)c(C)c1", "Potency": "active: 20.6 µM"}
{"smiles": "O=C(CCN1C(=O)c2ccccc2S1(=O)=O)N1CCN(c2ccc(F)cc2)CC1", "activity change, negative = growth inhibition": "inactive: -22.4%"}
{"smiles": "COc1cc(OC)cc(C(=O)NCCS(=O)(=O)N2CCN(Cc3ccccc3)CC2)c1", "Potency": "inconclusive [inhibitor, single point]"}
{"smiles": "Cc1cc(C)cc(C(=O)NC(CC(N)=O)c2ccc(N3CCCCCC3)c([N+](=O)[O-])c2)c1", "note": "(stereo not drawn)", "activity change, negative = growth inhibition": "inactive: -23.9%"}
{"smiles": "CC(C)(C)c1ccc(/C=C2\\SC(=O)N(CCNC(=O)c3cccc(S(=O)(=O)N4CCOCC4)c3)C2=O)cc1", "Potency": "active: 23.1 µM"}
{"smiles": "O=C1CC(N2CCC(O)(c3ccc(Br)cc3)CC2)C(=O)N1c1ccc(Cl)cc1", "note": "(stereo not drawn)", "Potency": "active: 25.9 µM"}
{"smiles": "COc1ccc(/C=N/NC(=O)C(C)Sc2ccccn2)cc1[N+](=O)[O-]", "note": "(stereo not drawn)", "Potency": "inconclusive [inhibitor, single point]"}
{"smiles": "O=C(CN1C(=O)C2(SCC(=O)N2c2cccc(Cl)c2)c2ccccc21)NCc1ccccc1", "note": "(stereo not drawn)", "Potency": "inconclusive [inhibitor, single point]"}
{"smiles": "Cc1ccc(Cn2ccc(NC(=O)CCSc3nc(-c4ccco4)cc(C(F)(F)F)n3)n2)cc1", "Potency": "inconclusive [inhibitor, single point]"}
{"smiles": "COc1c(C)cc(C(=O)C2CCCN(C(=O)c3cc(C)on3)C2)cc1C", "note": "(stereo not drawn)", "Potency": "inconclusive [inhibitor, single point]"}
{"smiles": "CC(C)c1cc(C(=O)NNC(=S)NC2CCCCC2)cs1", "activity change, negative = growth inhibition": "inactive: -7.43%"}
{"smiles": "Cc1cccc(N(Cc2ccccc2)C(=O)c2ccc(S(C)(=O)=O)cc2)c1", "Potency": "inconclusive [inhibitor, single point]"}
{"smiles": "COc1ccc(OC)c(C(=O)CCCC(=O)c2cc(OC)ccc2OC)c1", "Potency": "inconclusive [inhibitor, partial curve, poor fit]"}
{"smiles": "COc1cnc(-c2ccccc2)nc1Oc1ccccc1C", "Potency": "inconclusive [inhibitor, single point]"}
{"smiles": "COc1ccc(-c2cn3nc(N4CCC(C(=O)Nc5cc(Cl)ccc5C)CC4)sc3n2)cc1", "Potency": "inconclusive [inhibitor, single point]"}
{"smiles": "NC(=O)C1=C[C@@H](c2coc3ccccc3c2=O)C[C@@H](OCc2ccc(CO)cc2)O1", "Potency": "inconclusive [inhibitor, partial curve]"}
{"smiles": "Cc1cc(Cl)ccc1N(CC(=O)NCCSCc1ccco1)S(C)(=O)=O", "Potency": "inconclusive [inhibitor, single point]"}
{"smiles": "C/C=C(\\C)C(=O)OC(C)(C)[C@@H]1Cc2cc3ccc(=O)oc3cc2O1", "Potency": "inconclusive [inhibitor, partial curve, poor fit]"}
{"smiles": "COc1ccc(N(CC(=O)NC2CCCCC2)C(=O)CNC(=O)c2ccco2)cc1OC", "activity change, negative = growth inhibition": "inactive: -1.68%"}
{"smiles": "COc1cc(C(=O)N/N=C/c2sc(=O)n(-c3ccccc3)c2Cl)cc(OC)c1OC", "Potency": "inconclusive [inhibitor, single point]"}
{"smiles": "CC(C)CC(NS(=O)(=O)OCC(Cl)(Cl)Cl)c1ccccc1", "note": "(stereo not drawn)", "Potency": "active: 16.4 µM"}
{"smiles": "O=C(Nc1cccc(Cl)c1)c1cc2c(=O)n3ccccc3nc2s1", "activity change, negative = growth inhibition": "inactive: 1.43%"}
{"smiles": "Cc1ccc(NC(=O)c2cc3ccccn3n2)cc1F", "Potency": "inconclusive [inhibitor, single point]"}
{"smiles": "CCCCOC(=O)c1ccc(NC(=S)NC(=O)c2ccco2)cc1", "Potency": "inconclusive [inhibitor, single point]"}
{"smiles": "COc1ccccc1N1CCN(C2CCCN(C(=O)c3cccc(-c4ccco4)c3)C2)CC1", "note": "(stereo not drawn)", "Potency": "inconclusive [inhibitor, single point]"}
{"smiles": "CC(C)=NNc1ncnc2nc[nH]c12", "Potency": "active: 14.6 µM"}
{"smiles": "COC(=O)[C@@H]1CCCN1C(=O)c1cnn(-c2nccc(-c3cc(C)sc3C)n2)c1C1CC1", "Potency": "inconclusive [inhibitor, single point]"}
{"smiles": "O=S(=O)(c1ccccc1)c1cnc(-c2ccccc2)nc1N1CCCC1", "Potency": "active: 18.4 µM"}
{"smiles": "N#Cc1cc(C#N)c(N2CCN(c3ccccn3)CC2)nc1N", "Potency": "active: 22.4 µM"}
{"smiles": "CCc1cccc(-n2c(=O)c3cccnc3n2CC(=O)NCc2ccc(C)cc2)c1", "Potency": "inconclusive [inhibitor, single point]"}
{"smiles": "COc1ccc2sc(-c3ccc(N(C)C)cc3)c(C#CCCO)c2c1", "Potency": "active: 16.4 µM"}
{"smiles": "CC(C)c1ccc(OCc2ccc(C(=O)N3CCN(c4ccccn4)CC3)cc2)cc1", "Potency": "active: 20.6 µM"}
{"smiles": "CCCCNC(=O)[C@H](Cc1c[nH]c2ccccc12)NC(=O)c1ccccc1Cl", "activity change, negative = growth inhibition": "inactive: -12%"}
{"smiles": "CCOc1ccccc1NC(=O)CSc1nc2nc(-c3cccs3)cc(C(F)(F)F)c2c(=O)[nH]1", "Potency": "inconclusive [inhibitor, partial curve]"}
{"smiles": "COc1ccccc1C1CC(=O)NC(C)=C1C(=O)OCC(C)C", "note": "(stereo not drawn)", "Potency": "active: 13 µM"}
{"smiles": "Cc1ccc(Cl)cc1N1CCN(C(=O)CSc2cc(=O)n(C)c3ccccc23)CC1", "Potency": "active: 7.31 µM"}
{"smiles": "COc1cccc(C(=O)NCCS(=O)(=O)N(C)Cc2ccccc2)c1", "activity change, negative = growth inhibition": "inconclusive: -31.2% [inhibitor]"}
{"smiles": "O=C(Nc1ccc2c(c1)OCCO2)c1[nH]c(C(F)(F)F)nc1-c1ccccc1", "Potency": "inconclusive [inhibitor, single point]"}
{"smiles": "Cc1cccc(NC(=O)C2CCN(S(=O)(=O)c3ccc4c(c3)OCCCO4)CC2)n1", "Potency": "active: 20.6 µM"}
{"smiles": "C=CCn1c(SCC(=O)Nc2cc3oc4ccccc4c3cc2OC)nnc1-c1cnccn1", "Potency": "inconclusive [inhibitor, single point]"}
{"smiles": "C[C@@H]1CN([C@@H](C)CO)C(=O)c2ccccc2-c2ccccc2CO[C@@H]1CN(C)S(=O)(=O)c1ccc(C(F)(F)F)cc1", "activity change, negative = growth inhibition": "inactive: -3.05%"}
{"smiles": "COc1ccc(C2=C(Nc3ccccc3)c3ccccc3C2=O)cc1", "Potency": "inconclusive [inhibitor, single point]"}
{"smiles": "CC1=C(C(=O)Nc2cc(Cl)ccc2C)C(c2sccc2C)n2ncnc2N1", "note": "(stereo not drawn)", "Potency": "inconclusive [inhibitor, single point]"}
{"smiles": "COc1ccc(CCNC(=O)CCNC(=O)c2ccc(Br)cc2)cc1OC", "activity change, negative = growth inhibition": "inactive: -5.09%"}
